Measurements from PubChem BioAssay AID686971 (National Center for Advancing Translational Sciences (NCATS), 2013).
In all, about 360,000 compounds went through this assay and about 7,500 (2.1%) were called active. Inconclusive results, whose numbers are uncertain, are shown with a selection of clear calls. Calls follow the shape of the dose curve; as a rule, active = well fitted cell-killing curve with a large enough effect; inconclusive = small, poorly fitted or top-dose-only effect, or effect the other way, or another doubt; inactive = no such curve, though single readings can be large or run the other way. No potency is given beside an inconclusive call; the fits are too rough.

Experiment: qHTS for induction of synthetic lethality in tumor cells producing 2HG: qHTS for the HT-1080-IDH1KD cell line;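 as to activity, negative = toxicity: 0% = DMSO wells and -100% = cell-free medium wells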
Details: HT-1080 IDH1 knockdown viability, ATP luminescence, 48 h; activity, negative = toxicity: at 46.1 µM (top of the series) unless noted
Procedure, shortened: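 HT-1080-IDH1KD cells (IDH1 knocked down), 750/well in RPMI with 5% FBS, treated with compound 48 h at 37 degrees C. Viability by CellTiter-Glo luminescence, normalised to DMSO and no-cell wells; concentration-response curves classed.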
Potency is read from the fitted curve at half-maximal effect; tags tell the direction and shape of the fitted curve.

SMILES	Potency	activity, negative = toxicity
COc1ccc2nc3cc(Cl)ccc3c(Nc3ccc(O)c(CN4CCN(C)CC4)c3)c2c1	active: 16.4 µM	
CNC[C@@H](Cc1ccccc1)NC[C@@H](CC1CCCCC1)NCCCc1ccccc1	inconclusive [cytotoxic, single point]	
O=C1NC(c2ccccc2)=C(c2nc3ccccc3s2)C(c2ccccc2)N1 (stereo not drawn)	inconclusive [cytotoxic, single point]	
Cc1cccc(-c2nc(CN3CCCC(C(=O)NC4CCCC4)C3)c(C)o2)c1 (stereo not drawn)	inconclusive [cytotoxic, single point]	
O=C(Nc1ccccc1)Nc1ccc(Cl)c(S(=O)(=O)N2CCOCC2)c1	inactive	
COc1cc(C2c3[nH]c4ccccc4c3CC3COC(=O)N32)cc(OC)c1O (stereo not drawn)	inconclusive [cytotoxic, full curve, poor fit]	
CCN1CCN(c2nc(Nc3cccc(OC)c3)nc(N)c2[N+](=O)[O-])CC1	inconclusive [cytotoxic, single point]	
Cc1ccc(N2C(=O)C(O)(C(F)(F)F)C3=C2CC(C)(C)CC3=O)cc1C (stereo not drawn)		inconclusive: 15.8%
CC(=O)c1cccc(NC(=O)c2cccc(NC(=O)c3ccco3)c2)c1	inconclusive [cytotoxic, single point]	
CN1CCN(C(=O)c2cccc(-c3cnc4cnc(-c5ccccc5Oc5ccccc5)cn34)c2)CC1	active: 23.1 µM	
OC(Cc1ccccc1Br)c1ncc(-c2ccc(Cl)cc2)[nH]1 (stereo not drawn)	active: 20.6 µM	
COc1ccc(-c2noc(CCC(=O)Nc3ccc(C)c(C)c3)n2)cc1	inconclusive [cytotoxic, single point]	
CC(=O)Cc1nsc(NC(=O)c2ccc(-c3cc(Cl)ccc3Cl)o2)n1	active: 23.1 µM	
O=S(Cc1ccccc1)CC(O)(c1ccc(Cl)cc1)c1ccc(Cl)cc1 (stereo not drawn)	inconclusive [cytotoxic, single point]	
O=C(/C=C/c1cccs1)N1CCN(c2ccc(O)cc2)CC1	inconclusive [cytotoxic, partial curve]	
Oc1cc(O)cc(/C=C/c2ccc(O)c(O)c2)c1	inconclusive [cytotoxic, single point]	
CCn1c(C(=O)N2CCCC(C(=O)O)C2)cc2sccc21 (stereo not drawn)	inactive	
O=C(Cc1ccccc1F)Nc1nc(-c2ccc(F)cc2)cs1	inconclusive [cytotoxic, partial curve]	
O=C(C1=C[C@@H](c2ccc(Br)cc2)C[C@@H](OCc2ccc(CO)cc2)O1)N1CCN(Cc2ccc3c(c2)OCO3)CC1	inconclusive [cytotoxic, single point]	
Oc1ccccc1/C=N/Nc1nccnc1Cl	inconclusive [cytotoxic, full curve]	
CC(C)c1ccc(NC(=O)CCNS(=O)(=O)c2cc(Br)cnc2N)cc1	inconclusive [cytotoxic, single point]	
CCc1nc(NC(=O)c2sc(C)nc2C)sc1C(=O)OC	inactive	
COCCn1c(C)cc(C(=O)CSc2ccc3ccccc3n2)c1C	inactive	
COc1ccc(-n2ccsc2=S)cc1	inconclusive [cytotoxic, single point]	
O=C(CN1C(=O)/C(=C/c2ccccc2F)Sc2ccccc21)NCCCN1CCOCC1	inconclusive [cytotoxic, partial curve]	

SMILES	Potency	activity, negative = toxicity
O=C1NC(Cc2ccccc2)c2nc3cc(F)ccc3c(=O)n2-c2cc3ccccc3cc21 (stereo not drawn)	active: 16.4 µM	
Cc1nn(-c2ccccc2)c2nc(-c3cccs3)cc(C(=O)NN)c12	inconclusive [cytotoxic, single point]	
O=C(CC1C(=O)NCCN1C(=O)c1ccc([N+](=O)[O-])cc1)Nc1ccc(F)cc1 (stereo not drawn)	inactive	
O=C1/C(=C\c2ccc(O)c(O)c2)N=C2CCCCCN12	inactive	
COc1ccc(C(CNC(=O)c2cccc(S(=O)(=O)N(C)c3ccccc3)c2)N2CCCC2)cc1 (stereo not drawn)	inactive	
C=CCn1c(SCC(=O)c2cc(C)n(C(C)COC)c2C)nc2sc(C)c(C)c2c1=O (stereo not drawn)	inconclusive [cytotoxic, single point]	
Cc1ccccc1NS(=O)(=O)c1ccc(F)cc1	inactive	
CCOC(=O)c1sc(-c2ccc(F)cc2)cc1NC(=O)Nc1ccccc1OC	inactive	
N#C/C(=C\c1c[nH]c2ccccc12)C(=O)Nc1ncc(Cc2ccc(Cl)cc2Cl)s1	inconclusive [cytotoxic, single point]	
Cc1c(C(=O)NC2CCN(Cc3ccccc3)C2)oc2ccc(Br)cc12 (stereo not drawn)	inconclusive [cytotoxic, single point]	
Cc1ccc(-n2nnc(-c3nccn3C)n2)cc1	inconclusive [cytotoxic, single point]	
Fc1ccc(NC(=S)N/N=C/c2cccc(Br)c2)c(F)c1	inactive	
COC(=O)c1ccccc1NC(=O)c1cccc(NC(=O)c2ccc(Br)o2)c1C	active: 10 µM	
CC[C@@]1(O)C(=O)OCc2c1cc1n(c2=O)Cc2cc3c(CN(C)C)c(O)ccc3nc2-1	active: 2.06 µM	
CCOc1c(OC(C)=O)ccc(/C=C/c2ccc3cccc(OC)c3n2)c1[N+](=O)[O-]	inactive	
COc1ccc(NS(=O)(=O)c2ccc(NC(=S)NC(=O)/C=C/c3ccc(C)cc3)cc2)nn1	inconclusive [cytotoxic, single point]	
CCOC(=O)C1=C(CC)Nc2ccccc2N=C1NC(=O)Nc1ccc(Cl)c(Cl)c1	inconclusive [cytotoxic, single point]	
Cc1ccc(C(=O)CSC2=C(C#N)C(c3ccco3)CC(=O)N2)c(C)c1 (stereo not drawn)	inconclusive [cytotoxic, single point]	
CCCC1/C(=N/O)CC(c2ccccc2)NC1c1ccccc1 (stereo not drawn)	inconclusive [cytotoxic, single point]	
Cc1cc(C)c(OCC(=O)N/N=C/c2ccc3c(c2)OCO3)c(C)c1	active: 13 µM	
Cc1ccc(Nc2nc(N)c([N+](=O)[O-])c(NCc3ccco3)n2)cc1	inconclusive [cytotoxic, single point]	
CCCOc1c(OC)cccc1C1CC(=O)Nc2cc3c(cc21)OCCO3 (stereo not drawn)	inconclusive [cytotoxic, single point]	
CC(OC(=O)c1cc2sccc2n1C)C(=O)NCc1ccc(F)cc1 (stereo not drawn)	inconclusive [cytotoxic, single point]	
CCc1c(C)nc2c(C#N)c[nH]n2c1=O	inconclusive [cytotoxic, single point]	
COc1ccccc1/C=C/C=N/n1c(-c2n[nH]c3c2CCC3)n[nH]c1=S	inconclusive [cytotoxic, single point]	

SMILES	Potency	activity, negative = toxicity
CNc1cccnc1C=NNC(N)=S	inconclusive [cytotoxic, partial curve]	
Cn1c(/N=C(\N)c2ccccc2)nc2ccccc21	inactive	
CCN(CC)CCN(C(=O)c1ccc(S(=O)(=O)N2CCCC2)cc1)c1nc2cc(C)cc(C)c2s1	inconclusive [cytotoxic, single point]	
O=C(c1ccc(COc2ccc3ccccc3c2)o1)N1N=C(C(F)F)CC1(O)C(F)F (stereo not drawn)	inconclusive [cytotoxic, single point]	
COc1ccc(S(=O)(=O)Nc2ccccc2C(=O)N2CCOCC2)cc1C	inactive	
Cc1ccc(-n2nc3c(=O)n(CCCC(=O)NCc4cccc(F)c4)nc(C)c3c2C)cc1	inactive	
OCC1CCN(Cc2cn(Cc3ccccc3)nc2-c2cc3ccccc3o2)CC1	inconclusive [cytotoxic, single point]	
C(=C/c1nccc2c1[nH]c1ccccc12)/c1ccc2c(c1)OCO2	active: 16.4 µM	
Cc1ccc(-c2c(C(=O)N/N=C/c3cccc(Cl)c3)nnn2-c2nonc2N)cc1	inconclusive [cytotoxic, single point]	
CCOc1ccc(S(=O)(=O)N2CCOCC2)cc1NC(=O)CSCc1ccc(C)cc1	inconclusive [cytotoxic, single point]	
Cc1ccc(-n2ncc3c(NCc4ccco4)ncnc32)c(C)c1	inactive	
CC(C)(C)CN1CCN(Cc2cc3ccccc3[nH]2)CC1CCO (stereo not drawn)	inactive	
CC(C)(C)C1CCc2c(sc3nc(SCC(N)=O)nc(N)c23)C1 (stereo not drawn)	active: 32.6 µM	
N#CC1=C(N)Oc2c(ccc3ccccc23)C1c1ccsc1 (stereo not drawn)	active: 5.8 µM	
CC1(C)Cc2ccccc2-c2n[nH]c(=S)n21	active: 11.2 µM	
c1cnc2ccc(-c3ccc4ncccc4c3)cc2c1	inconclusive [cytotoxic, single point]	
O=C(c1ccc(CS(=O)(=O)c2ccc(Br)cc2)o1)N1CCN(c2ccc(F)cc2)CC1	inactive	
CCCc1nc2ccccc2c(=O)n1NC(=O)c1c(O)c2ccccc2[nH]c1=O	active: 11.2 µM	
CN(C(=O)COC(=O)c1ccc(-c2ccc(O)cc2)cc1)C1CCS(=O)(=O)C1 (stereo not drawn)	active: 18.4 µM	
Cn1nc(C(C)(C)C)cc1C(=O)NCc1cc(F)cc2c1OCOC2	active: 10.3 µM	
CSc1nc(N)c(C#N)c(-c2ccc(Cl)cc2)c1C#N	inconclusive [cytotoxic, single point]	
CC(=O)Oc1cccc2c1C(=O)C1CC=CC(OC(C)=O)C1C2=O (stereo not drawn)	inactive	
O=C(O)COc1ccc(/C=C/c2nc(-c3ccccc3O)n[nH]2)cc1	inactive	
